# Assay results taken from the supplement of paper PMC8728848.
# The other results are listed elsewhere or left out.
# B1: SialidaseA (Arthrobacter ureafaciens) (protein)
# chain: MRSNSTSAPSLVRRAATGVLTCAVSIGLLAGLGLPAQAAPTPPNSPTLPPGSFSETNLAADRTAANFFYRIPALTYLGNDVVLAAWDGRPGSAADAPNPNSIVQRRSTDGGKTWGPVQVIAAGHVADASGPRYGYSDPSYIYDAEANKVFAFFVYSKDQGFGGSQFGNDDADRNVISSAVIESSDAGVTWSQPRLITSVTKPGTSKTNPAAGDVRSNFASSGEGIQLKYGPHKGRLIQQYAGDVRQADGSNKIQAYSVYSDDHGVTWHKGANVGDRMDENKTVELSDGRVLLNSRDNANRGYRKVAVSTDGGATYGPVSQDTELPDPANNGAIARMFPNAAQGSADAKKLIFTNANSKTGRENVSARVSCDDGETWPGVRTIRSGFSAYSTVTRLADGKFGVLYEGNYTDNMPFATFDDAWLNYVCAPLAVPAVNIAPSATQEVPVTVTNQEATTLSGATATVYTPSGWSATTVPVPDVAPGASVTVTVALTAPADASGPRSLNAAFTTADGRVSQFTFTATTPVAPQVGLTITGSAPARDVAANPYQAGDVLGYTLNVKSTANVAANSVPLTGTFDSGFLPPAAPNCRYNNLAAGASYNCTTAKHTITAADMERGYFVPEATFSITSTTTPSLTKTVQFTGAAVALRDGLISADISGARTDVGRDLATRPYAAGELVPYAFTVKNTSPFVEQVVPTAGNFSPFLPAGAGNCRYLSLPAGQSYECATPRHAVTAEEVEQGFFVPDTTWEVSAAGQSTRTYRINGGEVDLLVRDAALSATVVAEWKDADGDRFASAGDPVTFTYTVGNAGNVALTGLEAPDAGISLPFLAPGDTATATREHVLTAADVAGGSLAASAFEATARNGSKEVTATAEGQPLELKVQPAQPSKEPELTVQDLEDQTPPFDLGTAFKYRTGQKVSLAGLEYGQWYYVYLNKTGYRLGWMFPTTGDTVEFILPPEVRNGRDDVVVLDKDGRRVSFDRLQVTPKGEKI
# Experiments:
# Experiment in all cases: glycan array binding signal (z-score within array); higher = stronger binding
# Conditions in all cases: glycan notation: IUPAC condensed, linker removed
# [1] = biological target: GlcNAc(b1-2)Gal(b1-3)GalNAc
# In short: (§1)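 Arrays were curated from the Consortium for Functional Glycomics database, 3228 in total, and kept only where the protein sequence was available. Binding is expressed as a within-array Z-score. This score was averaged across arrays of the same protein sequence at different concentrations or buffers and across linkers, and negative values can be read as non-binding.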
# [2] = biological target: GlcNAc(b1-2)Man(a1-3)[GlcNAc(b1-2)Man(a1-6)]Man(b1-4)GlcNAc(b1-4)GlcNAc
# In short: as §1
# [3] = biological target: GlcNAc(b1-2)Man(a1-3)[GlcNAc(b1-2)Man(a1-6)]Man(b1-4)GlcNAc(b1-4)[Fuc(a1-6)]GlcNAc
# In short: as §1
# [4] = biological target: GlcNAc(b1-2)Man(a1-3)[GlcNAc(b1-4)][GlcNAc(b1-2)Man(a1-6)]Man(b1-4)GlcNAc(b1-4)GlcNAc
# In short: as §1
# [5] = biological target: GlcNAc(b1-2)Man(a1-3)[GlcNAc(b1-4)][GlcNAc(b1-2)Man(a1-6)]Man(b1-4)GlcNAc(b1-4)[Fuc(a1-6)]GlcNAc
# In short: as §1
# [6] = biological target: GlcNAc(b1-2)[GlcNAc(b1-4)]Man(a1-3)[GlcNAc(b1-2)Man(a1-6)]Man(b1-4)GlcNAc(b1-4)GlcNAc
# In short: as §1
# [7] = biological target: GlcNAc(b1-2)[GlcNAc(b1-4)]Man(a1-3)[GlcNAc(b1-4)][GlcNAc(b1-2)Man(a1-6)]Man(b1-4)GlcNAc(b1-4)GlcNAc
# In short: as §1
# [8] = biological target: GlcNAc(b1-2)[GlcNAc(b1-4)]Man(a1-3)[GlcNAc(b1-4)][GlcNAc(b1-2)[GlcNAc(b1-6)]Man(a1-6)]Man(b1-4)GlcNAc(b1-4)GlcNAc
# In short: as §1
# [9] = biological target: GlcNAc(b1-2)[GlcNAc(b1-4)]Man(a1-3)[GlcNAc(b1-4)][GlcNAc(b1-2)[GlcNAc(b1-6)]Man(a1-6)]Man(b1-4)GlcNAc(b1-4)[Fuc(a1-6)]GlcNAc
# In short: as §1
# [10] = biological target: GlcNAc(b1-2)[GlcNAc(b1-6)]Man(a1-6)[GlcNAc(b1-2)Man(a1-3)]Man(b1-4)GlcNAc(b1-4)GlcNAc
# In short: as §1
# [11] = biological target: GlcNAc(b1-2)[GlcNAc(b1-6)]Man(a1-6)[GlcNAc(b1-2)Man(a1-3)]Man(b1-4)GlcNAc(b1-4)[Fuc(a1-6)]GlcNAc
# In short: as §1
# [12] = biological target: GlcNAc(b1-2)[GlcNAc(b1-6)]Man(a1-6)[GlcNAc(b1-4)][GlcNAc(b1-2)Man(a1-3)]Man(b1-4)GlcNAc(b1-4)GlcNAc
# In short: as §1
# GlcNAc(b1-3)Fuc = biological target: GlcNAc(b1-3)Fuc
# In short: as §1
# GlcNAc(b1-3)Gal = biological target: GlcNAc(b1-3)Gal
# In short: as §1
# [13] = biological target: GlcNAc(b1-3)Gal(b1-3)GalNAc
# In short: as §1
# GlcNAc(b1-3)Gal(b1-4)Glc = biological target: GlcNAc(b1-3)Gal(b1-4)Glc
# In short: as §1
# [14] = biological target: GlcNAc(b1-3)Gal(b1-4)GlcNAc
# In short: as §1
# [15] = biological target: GlcNAc(b1-3)Gal(b1-4)GlcNAc(b1-2)Man(a1-3)[GlcNAc(b1-3)Gal(b1-4)GlcNAc(b1-2)Man(a1-6)]Man(b1-4)GlcNAc(b1-4)GlcNAc
# In short: as §1
# [16] = biological target: GlcNAc(b1-3)Gal(b1-4)GlcNAc(b1-2)Man(a1-3)[GlcNAc(b1-3)Gal(b1-4)GlcNAc(b1-2)Man(a1-6)]Man(b1-4)GlcNAc(b1-4)[Fuc(a1-6)]GlcNAc
# In short: as §1
# [17] = biological target: GlcNAc(b1-3)Gal(b1-4)GlcNAc(b1-2)[GlcNAc(b1-3)Gal(b1-4)GlcNAc(b1-6)]Man(a1-6)[GlcNAc(b1-3)Gal(b1-4)GlcNAc(b1-2)Man(a1-3)]Man(b1-4)GlcNAc(b1-4)GlcNAc
# In short: as §1
# [18] = biological target: GlcNAc(b1-3)Gal(b1-4)GlcNAc(b1-3)Gal(b1-4)GlcNAc
# In short: as §1
# [19] = biological target: GlcNAc(b1-3)Gal(b1-4)GlcNAc(b1-3)Gal(b1-4)GlcNAc(b1-2)Man(a1-3)[GlcNAc(b1-3)Gal(b1-4)GlcNAc(b1-3)Gal(b1-4)GlcNAc(b1-2)Man(a1-6)]Man(b1-4)GlcNAc(b1-4)GlcNAc
# In short: as §1
# [20] = biological target: GlcNAc(b1-3)Gal(b1-4)GlcNAc(b1-3)Gal(b1-4)GlcNAc(b1-2)Man(a1-3)[GlcNAc(b1-3)Gal(b1-4)GlcNAc(b1-3)Gal(b1-4)GlcNAc(b1-2)Man(a1-6)]Man(b1-4)GlcNAc(b1-4)[Fuc(a1-6)]GlcNAc
# In short: as §1
# [21] = biological target: GlcNAc(b1-3)Gal(b1-4)GlcNAc(b1-3)Gal(b1-4)GlcNAc(b1-2)[GlcNAc(b1-3)Gal(b1-4)GlcNAc(b1-3)Gal(b1-4)GlcNAc(b1-6)]Man(a1-6)[GlcNAc(b1-3)Gal(b1-4)GlcNAc(b1-3)Gal(b1-4)GlcNAc(b1-2)Man(a1-3)]Man(b1-4)GlcNAc(b1-4)[Fuc(a1-6)]GlcNAc
# In short: as §1
# [22] = biological target: GlcNAc(b1-3)Gal(b1-4)GlcNAc(b1-3)Gal(b1-4)GlcNAc(b1-3)Gal(b1-4)GlcNAc(b1-2)Man(a1-3)[GlcNAc(b1-3)Gal(b1-4)GlcNAc(b1-3)Gal(b1-4)GlcNAc(b1-3)Gal(b1-4)GlcNAc(b1-2)Man(a1-6)]Man(b1-4)GlcNAc(b1-4)GlcNAc
# In short: as §1
# [23] = biological target: GlcNAc(b1-3)Gal(b1-4)GlcNAc(b1-3)Gal(b1-4)GlcNAc(b1-3)Gal(b1-4)GlcNAc(b1-2)Man(a1-3)[GlcNAc(b1-3)Gal(b1-4)GlcNAc(b1-3)Gal(b1-4)GlcNAc(b1-3)Gal(b1-4)GlcNAc(b1-2)Man(a1-6)]Man(b1-4)GlcNAc(b1-4)[Fuc(a1-6)]GlcNAc
# In short: as §1
# [24] = biological target: GlcNAc(b1-3)Gal(b1-4)GlcNAc(b1-3)Gal(b1-4)GlcNAc(b1-3)Gal(b1-4)GlcNAc(b1-2)[GlcNAc(b1-3)Gal(b1-4)GlcNAc(b1-3)Gal(b1-4)GlcNAc(b1-3)Gal(b1-4)GlcNAc(b1-6)]Man(a1-6)[GlcNAc(b1-3)Gal(b1-4)GlcNAc(b1-3)Gal(b1-4)GlcNAc(b1-3)Gal(b1-4)GlcNAc(b1-2)Man(a1-3)]Man(b1-4)GlcNAc(b1-4)[Fuc(a1-6)]GlcNAc
# In short: as §1
# [25] = biological target: GlcNAc(b1-3)Gal(b1-4)GlcNAc(b1-3)Gal(b1-4)GlcNAc(b1-3)Gal(b1-4)GlcNAc(b1-3)Gal(b1-4)GlcNAc(b1-2)Man(a1-3)[GlcNAc(b1-3)Gal(b1-4)GlcNAc(b1-3)Gal(b1-4)GlcNAc(b1-3)Gal(b1-4)GlcNAc(b1-3)Gal(b1-4)GlcNAc(b1-2)Man(a1-6)]Man(b1-4)GlcNAc(b1-4)GlcNAc
# In short: as §1
# [26] = biological target: GlcNAc(b1-3)Gal(b1-4)GlcNAc(b1-3)Gal(b1-4)GlcNAc(b1-3)Gal(b1-4)GlcNAc(b1-3)Gal(b1-4)GlcNAc(b1-2)Man(a1-3)[GlcNAc(b1-3)Gal(b1-4)GlcNAc(b1-3)Gal(b1-4)GlcNAc(b1-3)Gal(b1-4)GlcNAc(b1-3)Gal(b1-4)GlcNAc(b1-2)Man(a1-6)]Man(b1-4)GlcNAc(b1-4)[Fuc(a1-6)]GlcNAc
# In short: as §1
# [27] = biological target: GlcNAc(b1-3)Gal(b1-4)GlcNAc(b1-3)Gal(b1-4)GlcNAc(b1-3)Gal(b1-4)GlcNAc(b1-3)Gal(b1-4)GlcNAc(b1-2)[GlcNAc(b1-3)Gal(b1-4)GlcNAc(b1-3)Gal(b1-4)GlcNAc(b1-3)Gal(b1-4)GlcNAc(b1-3)Gal(b1-4)GlcNAc(b1-6)]Man(a1-6)[GlcNAc(b1-3)Gal(b1-4)GlcNAc(b1-3)Gal(b1-4)GlcNAc(b1-3)Gal(b1-4)GlcNAc(b1-3)Gal(b1-4)GlcNAc(b1-2)Man(a1-3)]Man(b1-4)GlcNAc(b1-4)[Fuc(a1-6)]GlcNAc
# In short: as §1
binder,measurement,setting,value
B1,glycan array binding signal (z-score),[1],0.347
same,glycan array binding signal (z-score),[2],-0.338
same,glycan array binding signal (z-score),[3],-0.251
same,glycan array binding signal (z-score),[4],-0.689
same,glycan array binding signal (z-score),[5],-0.89
same,glycan array binding signal (z-score),[6],-0.749
same,glycan array binding signal (z-score),[7],-0.864
same,glycan array binding signal (z-score),[8],-0.824
same,glycan array binding signal (z-score),[9],-0.681
same,glycan array binding signal (z-score),[10],-0.551
same,glycan array binding signal (z-score),[11],-0.346
same,glycan array binding signal (z-score),[12],-0.712
same,glycan array binding signal (z-score),GlcNAc(b1-3)Fuc,-0.374
same,glycan array binding signal (z-score),GlcNAc(b1-3)Gal,-0.876
same,glycan array binding signal (z-score),[13],-0.683
same,glycan array binding signal (z-score),GlcNAc(b1-3)Gal(b1-4)Glc,-0.574
same,glycan array binding signal (z-score),[14],-0.874
same,glycan array binding signal (z-score),[15],-0.172
same,glycan array binding signal (z-score),[16],0
same,glycan array binding signal (z-score),[17],0.551
same,glycan array binding signal (z-score),[18],-0.891
same,glycan array binding signal (z-score),[19],0.374
same,glycan array binding signal (z-score),[20],-0.241
same,glycan array binding signal (z-score),[21],0.529
same,glycan array binding signal (z-score),[22],-0.081
same,glycan array binding signal (z-score),[23],0.168
same,glycan array binding signal (z-score),[24],0.616
same,glycan array binding signal (z-score),[25],0.085
same,glycan array binding signal (z-score),[26],0.035
same,glycan array binding signal (z-score),[27],0.133
